Experimental findings from patent publication US12729231B2, “Fusion protein having triple activity and use thereof” (SHANGHAI MINWEI BIOTECHNOLOGY CO., LTD, priority 2023, dated 2026) are described below.

For this assay, the system named is DIO mice. The assay is described as follows: body weight reduction by multiple subcutaneous injections in DIO mice. Type of assay: in vivo. As to conditions: 30 nmol/kg subcutaneous twice a week for 5 weeks, mean of 6 mice. The method, then: 7-week-old C57BL/6Nju mice were fed with a high-fat diet (of about 20% protein and about 60% fat) for 12 weeks for modeling. Feeding conditions: 12 hours of light and 12 hours of darkness cycle every day, ad libitum feeding, temperature 20-25° C., relative humidity 40-70%, ventilation frequency of 10-15 times/hour. According to body weight, water consumption, and food intake, the mice were randomly divided into groups the day before administration. […] Subcutaneous injection treatment was administered twice a week for 5 consecutive weeks, for a total of 10 administrations. After the administration, the body weight, OGTT, body fat ratio, blood lipids and liver function of the mice were measured. The data are shown as mean±standard deviation, and statistically analyzed by One-Way ANOVA.

B1: Fc-FGF21: Fc-FGF21 mutant, SEQ ID NO 3; FGF21 single activity comparator (protein)
chain: [human IgG4 Fc with S228P F234A L235A (EU numbers) not listed]GGGGSGGGGSGGGGSHPIPDSSPLLQFGGQVRQVYLYTDDAQQTEAHLEIREDGTVGGAADQSPESLLQLKALKPGVIQILGVKTSRFLCQRPDGALYGSLHFDPEACSFRERLLEDGYNVYQSEAHGLPLHLPGNKSPHRDPAPRGPARFLPLPGLPPALPEPPGILAPQPPDVGSSDPLSMVGNSTGRSPSYAS
modifications: Fc-FGF21 mutant fusion protein
As for B1, under “DIO mice”, the ALT was found to be 88.365 U/L, the AST was 77.658 U/L, the “Blood glucose (fasting)” value came to 9.12 mmol/L and the “LDL-C (plasma low-density lipoprotein cholesterol)” value is 0.656 mmol/L. Moreover, the “TC (plasma total cholesterol)” value (DIO mice) turned out to be 5.364 mmol/L. Besides, under “DIO obese mice”, the “% Change in weight since inception” value is recorded as −6.65% and the Body fat ratio turned out to be 42.88%.
